According to patent publication US6545128 (BURNHAM INSTITUTE, dated 2003):

Molecular target: T1, 35S-labeled in vitro translated HA-tagged BI-2 (human, UniProt Q9NZS9 1-450, 35S-labeled methionine (in vitro translation))
T1 construct: Made by TNT rabbit reticulocyte in vitro transcription/translation; also called HA-BI-2; not shown: three copies of the HA tag at the N-terminus (vector pSN503)
T1 sequence: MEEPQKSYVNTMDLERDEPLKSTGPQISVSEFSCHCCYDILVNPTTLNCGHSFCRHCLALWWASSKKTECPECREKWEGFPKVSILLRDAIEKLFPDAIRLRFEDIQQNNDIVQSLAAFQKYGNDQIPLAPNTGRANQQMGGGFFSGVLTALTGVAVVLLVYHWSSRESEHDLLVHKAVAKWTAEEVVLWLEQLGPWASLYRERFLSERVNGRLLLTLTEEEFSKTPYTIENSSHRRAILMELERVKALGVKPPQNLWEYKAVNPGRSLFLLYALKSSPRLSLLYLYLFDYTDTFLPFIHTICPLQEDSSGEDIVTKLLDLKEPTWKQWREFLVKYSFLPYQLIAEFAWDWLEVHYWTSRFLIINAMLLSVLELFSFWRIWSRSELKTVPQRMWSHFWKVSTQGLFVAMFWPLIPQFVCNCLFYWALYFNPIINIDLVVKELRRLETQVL
Assay: GST pull-down: about 5 ug GST protein on glutathione SEPHAROSE, 35S-labeled in vitro translated HA-BI-2, SDS-PAGE and autoradiography
Procedure: Approximately 5 µg of the following fusion proteins, including GST control, GST-CD40 cytosolic domain, GST-Bcl-2, GST-Bax or GST-BI-2, were immobilized on glutathione SEPHAROSE, then 8 µl of ^35S-labeled in vitro translated HA-tagged BI-2 in binding buffer was added. After incubation at 4° C. for 2 hr, the beads were washed 5× with binding buffer and the associated proteins were eluted in Laemli sample buffer and analyzed by SDS-PAGE (10% gel). As a control, ^35S-labeled BI-2 was loaded directly into the gel, using one-quarter the amount employed for the binding experiments. Following electrophoresis, the gels were dried and exposed to X-ray film.

binding result: no binding
B1: GST control (other)
chain: not shown
notes: Control, immobilized on glutathione SEPHAROSE
